{"source": "PubChem BioAssay AID902", "about": "(National Center for Advancing Translational Sciences (NCATS), 2007)", "note": "About 1,900 (1.5%) of roughly 130,000 compounds were called active. Inconclusive means that the source gave no clear call. Such entries were picked first, then a sample of the others. The call rests on the fitted dose curve; in most records, active means well fitted cell-killing curve with a large enough effect; inconclusive means small, poorly fitted or top-dose-only effect; inactive means no such curve, though single readings can be large or run the other way. Where the call is inconclusive, the potency comes from a doubtful curve fit. Potency means the concentration at half of the fitted maximal effect; tags describe the fitted curve by direction and shape."}
{"assay": "qHTS Screen for Compounds that Selectively Target Cancer Cells with p53 Mutations: Cytotoxicity of p53ts Cells at the Nonpermissive Temperature; further: nearly all actives have a fitted effect of over 55% in size", "settings": "H1299-p53A138V viability at 39C, ATP luminescence, 24 h; series mostly up to 46.1 µM"}
{"smiles": "Cc1ccc(CNC(=O)CN2N=C(c3ccc(C)cc3)CCC2=O)cc1", "Potency": "inconclusive: 3.98 µM [cytotoxic, partial curve]"}
{"smiles": "Cn1c(-c2cccc(Br)c2)cnc1NCc1cccc(F)c1", "Potency": "inconclusive: 31.6 µM [cytotoxic, single point]"}
{"smiles": "CC(=O)c1c(C)[nH]c(C(=O)CSc2nnc(-c3ccco3)n2Cc2ccccc2)c1C", "Potency": "inconclusive: 10 µM [cytotoxic, single point]"}
{"smiles": "O=C(Nc1ccc2c(c1)CCC2)c1ccccc1", "Potency": "inconclusive: 35.5 µM [cytotoxic, single point]"}
{"smiles": "N#Cc1c(C(F)(F)F)cc(-c2cccs2)nc1SCC(=O)Nc1cccc(Br)c1", "Potency": "active: 12.6 µM"}
{"smiles": "Cc1c(Cl)cc(C(C)(C)C)c(O)c1Cc1c(C)c(Cl)cc(C(C)(C)C)c1O", "Potency": "inconclusive: 3.16 µM [cytotoxic, single point]"}
{"smiles": "CN(C)/C=N/c1cnc(C(=O)c2ccc(Cl)cc2)n1C", "Potency": "inactive"}
{"smiles": "CCC(c1nnnn1C1CCCC1)N1CCN(c2ccccc2F)CC1", "note": "(stereo not drawn)", "Potency": "inactive"}
{"smiles": "O=C(c1ccc(Br)cc1)N1CCC(c2nc3ccccc3s2)CC1", "Potency": "inconclusive: 15.8 µM [cytotoxic, partial curve, poor fit]"}
{"smiles": "CN1CCN(c2ncc3nc(-c4cccc(C#N)c4)c(=O)n(CCc4ccccc4)c3n2)CC1", "Potency": "inconclusive: 31.6 µM [cytotoxic, single point]"}
{"smiles": "COc1ccc(CNC(=O)CCCc2nnc3n(C(C)C)c(=O)c4sccc4n23)cc1", "Potency": "inactive"}
{"smiles": "Cc1ccc2cc3cc(C(=O)N(C)C4CCCCC4)oc3nc2c1", "Potency": "inconclusive: 3.16 µM [cytotoxic, full curve, poor fit]"}
{"smiles": "O=C(NCCc1ccccc1)c1ccc2c(c1)nc1n2CCOC1", "Potency": "active: 10 µM"}
{"smiles": "Cc1ccc(S(=O)(=O)Nc2cc(Cl)c3oc4c(c3c2)CCCC4)cc1", "Potency": "inconclusive: 15.8 µM [cytotoxic, single point]"}
{"smiles": "Cc1c(-c2nsc(NC(=O)c3cccs3)n2)nnn1-c1ccc(F)cc1", "Potency": "inconclusive: 12.6 µM [cytotoxic, partial curve]"}
{"smiles": "O=C(CCS(=O)(=O)c1ccc(Br)s1)Nc1cc(C(F)(F)F)cc(C(F)(F)F)c1", "Potency": "inconclusive: 25.1 µM [cytotoxic, single point]"}
{"smiles": "Cc1ccccc1Nc1c(-c2ccc(N3CCOCC3)cc2)nc2cccc(C)n12", "Potency": "active: 7.94 µM"}
{"smiles": "O=C(Nc1ccc(NC(=O)C2CC2)cn1)c1ccccc1Cl", "Potency": "inconclusive: 12.6 µM [cytotoxic, partial curve]"}
{"smiles": "Cc1nc2cc(-c3cccc(F)c3)nn2c(C)c1CCC(=O)Nc1ccccc1C(N)=O", "Potency": "inconclusive: 31.6 µM [cytotoxic, single point]"}
{"smiles": "CSc1ccc(-c2nnn(Cc3ccccn3)n2)cc1", "Potency": "inconclusive: 10 µM [cytotoxic, partial curve]"}
{"smiles": "Cc1onc(-c2c(Cl)cccc2Cl)c1C(=O)NC(=S)Nc1sc2c(c1C(N)=O)CCC(C)C2", "note": "(stereo not drawn)", "Potency": "inactive"}
{"smiles": "Cc1ccc(-c2csc3ncnc(Sc4nnc(CN5CCCCCC5=O)o4)c23)cc1", "Potency": "inconclusive: 31.6 µM [cytotoxic, single point]"}
{"smiles": "COc1ccccc1S(=O)(=O)Cc1ccc(C(=O)N2CCN(c3cc(Cl)ccc3C)CC2)o1", "Potency": "inconclusive: 15.8 µM [cytotoxic, single point]"}
{"smiles": "COC(=O)c1c(-c2ccc(Cl)cc2)noc1N1CCN(c2ccccc2OC)CC1", "Potency": "inconclusive: 10 µM [cytotoxic, partial curve]"}
{"smiles": "CCc1ccc(C(=O)CC2(O)C(=O)N(Cc3ccc(C)cc3)c3ccccc32)cc1", "note": "(stereo not drawn)", "Potency": "inconclusive: 31.6 µM [cytotoxic, single point]"}
{"smiles": "CCOc1ccccc1N1CC(c2nc3ccccc3n2CCCOc2ccc(OC)cc2)CC1=O", "note": "(stereo not drawn)", "Potency": "inconclusive: 31.6 µM [cytotoxic, single point]"}
{"smiles": "O=C(NCC1CCN(Cc2cccc(Cl)c2)CC1)Nc1ccc(F)c(Cl)c1", "Potency": "inconclusive: 20 µM [cytotoxic, single point]"}
{"smiles": "Cc1cc(O)c(C(c2ccccc2)N2CCN(c3ccc(F)cc3)CC2)c(=O)n1Cc1ccco1", "note": "(stereo not drawn)", "Potency": "inactive"}
{"smiles": "CCOc1ccc(NC(=O)CSc2c3c(nc4ccccc24)CCCC3)cc1", "Potency": "inconclusive: 15.8 µM [cytotoxic, single point]"}
{"smiles": "CC(C)(C)c1ccc(C(=O)N2CCCC(c3nc4c(nnn4Cc4cccc(F)c4)c(=O)[nH]3)C2)cc1", "note": "(stereo not drawn)", "Potency": "inconclusive: 5.01 µM [cytotoxic, partial curve]"}
{"smiles": "COc1ccccc1N=c1oc2cc(O)ccc2cc1C(N)=O", "Potency": "active: 12.6 µM"}
{"smiles": "CCCCSc1nc2c(cc1C#N)CCC2", "Potency": "inactive"}
{"smiles": "COc1ccc(OC)c(NC(=O)c2cc3cccc(OC)c3oc2=O)c1", "Potency": "inactive"}
{"smiles": "Cc1ccc2nc(-c3ccc(SCC(=O)Nc4cc(C)on4)nc3)[nH]c2c1", "Potency": "inconclusive: 10 µM [cytotoxic, partial curve]"}
{"smiles": "CCOC(=O)N1CCC(NC(=O)c2cccc3c2C(=O)N(Cc2cccnc2)C3)CC1", "Potency": "inactive"}
{"smiles": "COc1c2c(cc3occ(-c4ccc5c(c4)OCO5)c(=O)c13)OC(C)(C)C=C2", "Potency": "active: 10 µM"}
{"smiles": "O=C(CSc1nc2ncccc2o1)Nc1ccc(Cl)cc1F", "Potency": "inconclusive: 7.94 µM [cytotoxic, partial curve, poor fit]"}
{"smiles": "Fc1ccc(-c2nc3n(n2)Cc2ccccc2-3)cc1", "Potency": "inconclusive: 10 µM [cytotoxic, partial curve]"}
{"smiles": "N#Cc1nc(/C=C/c2ccc(F)cc2)oc1N1CCCCCC1", "Potency": "inconclusive: 5.01 µM [cytotoxic, partial curve, poor fit]"}
{"smiles": "COc1cc(OC)cc(C(=O)N2CCN(C(=O)COc3ccc(C)cc3)CC2)c1", "Potency": "inconclusive: 12.6 µM [cytotoxic, single point]"}
{"smiles": "O=S(=O)(c1cccc(Cl)c1)n1c(/C=C/c2ccccc2Cl)nc2ccccc21", "Potency": "active: 1 µM"}
{"smiles": "Cc1c2cnn(-c3ccccc3)c(=O)c2c(C)n1CCCC(=O)Nc1cccc(F)c1", "Potency": "inactive"}
{"smiles": "CCn1cc2nc(SCc3cc(C)ccc3C)n(Cc3ccc(Cl)cc3)c(=O)c2n1", "Potency": "inconclusive: 25.1 µM [cytotoxic, single point]"}
